Consider three compounds from patent US6750224B1, “Antibacterial optically pure benzoquinolizine carboxylic acids, processes, compositions and methods of treatment” (priority 1999, dated 2004).

Molecules are shown by their SMILES.

For the assay, the system named is S. aureus strain 042. The settings on record: after six passages in drug containing media. On the procedure:
[…] . In studies, which mimic the clinical scenario, S-(−)-Nadifloxacin was evaluated in comparison with trovafloxacin and gatifloxacin by sequential transfer/passages through respective drug containing media. […] . In clinical settings, the ability of pathogenic bacteria to select a drug resistant variant/subcldne while the patient is on antibacterial drug therapy often determines the outcome of the therapy.
For `COc1c(N2CCNC(C)C2)c(F)cc2c(=O)c(C(=O)O)cn(C3CC3)c12` (stereo not drawn) [Gatifloxacin], the “rise in MIC value” is recorded as around 700%.
Turning to `C[C@H]1CCc2c(N3CCC(O)CC3)c(F)cc3c(=O)c(C(=O)O)cn1c23` [S-(−)-Nadifloxacin, S-(−)-9-fluoro-8-(4-hydroxy-piperidin-1-yl)-5-methyl-6,7-dihydro-1-oxo-1H,5H benzo[i,j]quinolizine-2-carboxylic acid], the “rise in MIC value” is listed as 4%.
`N[C@@H]1[C@H]2CN(c3nc4c(cc3F)c(=O)c(C(=O)O)cn4-c3ccc(F)cc3F)C[C@@H]12` [Trovafloxacin, trovafloxacin]: the “rise in MIC value” was “approximately 300%”.
